According to PubChem BioAssay AID588334 (Broad Institute, 2011):
The whole screen tested about 300,000 compounds, of which about 2,300 (0.77%) were called active. Inconclusive means that the source gave no clear call. Such entries were picked first, then a sample of the others.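 Rule for the calls: active = mean activation of at least 80% with every replicate also reaching 80%; inconclusive = mean reaches 80% but some replicate falls short; inactive = the rest.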

assay: MITF-driven TRPM1 luciferase induction in melanoma cells – cell-based, SK-MEL-5, single point, primary screen (AID 588334); conditions: SK-MEL-5 TRPM1-promoter luciferase, 24 h; at 12.5 µM; active compounds read high; % of positive control, neutral wells = 0;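 note: 0% = neutral control wells and 100% = parthenolide positive control wells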

Row | Structure (SMILES) | activation
1 | S=C(c1ccc(-c2cccc(Cl)c2)o1)N1CCCCC1 | active: 93.4%
2 | Cc1cccc(C(=O)N=c2sccn2C)c1[N+](=O)[O-] | active: 100%
3 | COc1ccccc1OCc1ccc(C(=O)N2CCN(C)CC2)o1 | inactive: 1.8%
4 | COc1ccc(-c2cc(C(=O)NC(Cc3cc4ccccc4[nH]3)C(=O)O)c(C)o2)cc1OC (stereo not drawn) | inactive: 4.82%
5 | O=[N+]([O-])c1ccc(CSc2nc3ccccc3[nH]2)cc1 | inconclusive: 89.1%
6 | COc1ccccc1C(=O)NCCC(=O)NC1CCC(C)CC1 (stereo not drawn) | inconclusive: 80.7%
7 | CNC[C@@H](C)NC[C@@H](Cc1ccccc1)NCCc1ccccc1 | inactive: 19.5%
8 | O=C(Nc1nc(-c2cccs2)cs1)c1ccco1 | inconclusive: 81.2%
9 | CCN1CCc2c(sc(NC(=O)C3COc4ccccc4O3)c2C(N)=O)C1 (stereo not drawn) | active: 86.3%
10 | COc1ccccc1OCc1nc2ccccc2[nH]1 | inconclusive: 84.2%
11 | CC(=O)Nc1cccc(NC(=O)c2cc3ccccc3o2)c1 | inconclusive: 88.6%
12 | O=[N+]([O-])c1cccc(COc2ccc(CN3CCCC3)cc2)c1 | inconclusive: 80.4%
13 | CCNC(=S)NNC(=O)c1cc(-c2cccc(OCC)c2)nc2ccccc12 | inactive: 9.06%
14 | O=C(COc1ccc(Cl)cc1Cl)NC(=O)N1CCCCC1 | active: 95%
15 | CCOc1ccc(NC(=O)c2ccc(NC(=O)COC(=O)Cc3ccc(OC)cc3)cc2)cc1 | inconclusive: 81.4%
16 | CN(C)S(=O)(=O)c1cccc(NC(=O)COC(=O)c2cc3ccccc3oc2=O)c1 | inconclusive: 80.1%
17 | COc1ccc(C(=O)NOCc2ccccc2)cc1 | inactive: -16.2%
18 | CCN(C(=O)c1ccc2c(Cl)c3c(nc2c1)CCC3)c1ccc(C)c(C)c1 | inactive: -2.17%
19 | Cc1nc2cc(Nc3nnc(-c4ccccc4)c4ccccc34)ccc2n1C | inconclusive: 82.9%
20 | N#C/C(=C/c1cccs1)c1ccccn1 | inconclusive: 82.9%
21 | CCC(C)NCCCOc1cc(Cl)ccc1Cl (stereo not drawn) | inactive: 2.88%

Row | Structure (SMILES) | activation
22 | COc1ccc(-c2noc(CSc3ccccc3)n2)cc1OC | inconclusive: 83.7%
23 | CC(C)C(=O)N1CCN(c2ccc(NC(=S)NC(=O)c3cc4ccccc4o3)cc2)CC1 | inactive: -3.08%
24 | CC(C)C(=O)Nc1cccc(-c2cnc3ccccc3n2)c1 | inconclusive: 80.5%
25 | O=C1C=C(c2ccc3[nH]ccc3c2)CCC1 | inconclusive: 86%
26 | COc1cccc(-c2cc(C(=O)N3C(C)CCCC3C)no2)c1 (stereo not drawn) | inconclusive: 95.6%
27 | CCC1CCCCN1CCCNC(=O)c1ccc2nc(N3CCCCC3)sc2c1 (stereo not drawn) | inconclusive: 84.4%
28 | CC(=O)c1cccc(NC(=S)NC(=O)c2cccc(Cl)c2)c1 | inactive: 67.6%
29 | COc1cccc(C(=O)NC(=S)Nc2ccc(N(C)C)cc2)c1 | inconclusive: 86.8%
30 | Cc1cnc(NC(=O)Nc2ccc(Cl)cc2)s1 | inconclusive: 81.5%
31 | COc1ccc(OCc2cc(C(=O)N3CCSCC3)no2)c(Cl)c1 | inconclusive: 84.5%
32 | COc1ccc(-c2csc(-n3cccn3)n2)cc1 | inconclusive: 87.9%
33 | COc1ccc2nc(NC(=O)c3ccc4ncsc4c3)sc2c1 | inconclusive: 84.9%
34 | CCCc1nc2ccc(NC(C)=O)cc2c(=O)n1Cc1ccc(Cl)cc1 | active: 82%
35 | CC(C)(C)CC(=O)Nc1ccc(-c2cn3cccnc3n2)cc1 | inconclusive: 84.4%
36 | O=C(c1nnc(-c2ccc(Cl)cc2)o1)C1CCCC1 | inconclusive: 81.2%
37 | CCOc1ccc2nc(NC(=O)Cn3[nH]c(=O)c4ccccc4c3=O)sc2c1 | inconclusive: 82.6%
38 | COc1ccccc1NC(=S)N/N=C/c1ccc(O)cc1 | inconclusive: 80.9%
39 | Cc1cccc(C(=O)OCC(=O)c2ccc3c(c2)OCO3)c1O | active: 119%
40 | Cc1cc(C(=O)CN2C(=O)NC3(CCCCC3)C2=O)c(C)n1Cc1ccco1 | inconclusive: 80.6%
41 | CCOC(=O)c1c(C)n(C)c2cc(Br)c(O)c(O)c12 | inconclusive: 84.7%
42 | CC(C)(C)S(=O)(=O)c1cnc(-c2ccc(Cl)cc2)nc1N | inconclusive: 83.2%

Row | Structure (SMILES) | activation
43 | Cc1ccnc(NC(=O)C2CC(=O)N(Cc3ccccc3)C2)c1 (stereo not drawn) | active: 90.4%
44 | Cc1c(C(=O)Nc2cccc(F)c2)cnn1-c1ccccc1 | active: 109%
45 | O=C(CCc1ccccc1)Nc1ccc(NC(=O)c2ccco2)nc1 | inconclusive: 88.3%
46 | CC(=O)Nc1cccc(/C(C)=N/NC(=O)c2ccc(CN3CCOCC3)cc2)c1 | inactive: 6.69%
47 | Cc1nc(-c2ccc(NC(=O)C3CC3)cc2)cs1 | inconclusive: 82%
48 | COc1ccc(/C(C)=N/Nc2nncc3ccccc23)cc1 | active: 109%
49 | Cc1c(O)ccc(C(=O)COc2ccc(F)cc2)c1O | inconclusive: 82.1%
50 | COc1ccccc1C(=O)Nc1ccncc1 | inactive: 2.91%
51 | COC(=O)Cc1[nH]n(-c2ccccc2)c(=O)c1C(C)=Nc1ccccc1 | inactive: 20.6%
52 | c1ccc(CSCc2nc3ccccc3[nH]2)cc1 | active: 111%
53 | O=[N+]([O-])c1ccc(N/N=C\c2cccn2-c2ccccc2)nc1 | inactive: 16.3%
54 | Cc1cccc(Nc2nc(N)nc(CSC(=S)N3CCOCC3)n2)c1 | inconclusive: 81.8%
55 | O=C(CSc1n[nH]c(-c2ccc(Cl)cc2Cl)n1)Nc1ccccn1 | inconclusive: 228%
56 | COc1nc(C)nc2c1sc1nc3c(cc12)COC(C)(C)C3 | inconclusive: 82.4%
57 | COc1cc2sc3cc(NCc4ccc(C)o4)ccc3c(=O)c2cc1OC | active: 109%
58 | Fc1ccc2cc(-c3ccsc3)ncc2c1 | inactive: 72.6%
59 | CN(C)c1nc(-c2ccc([N+](=O)[O-])cc2)cs1 | inconclusive: 80.5%
60 | O=C(Nc1ccc2c(c1)Cc1ccccc1-2)c1cccnc1 | inconclusive: 92.1%
61 | COCc1nn2c(N)c(-c3ccccc3)cnc2c1-c1ccccc1 | active: 108%
62 | O=C(C[n+]1cccc(Br)c1)c1ccc(-c2ccccc2)cc1 | inactive: 14.9%
63 | CCOC(=O)c1ccc(OS(=O)(=O)c2ccccc2)c(OC)c1 | inconclusive: 80.2%
